This sample is rich in variants without activity.
B1: TPR 5TU (parent)
chain: GGAUCUUCUCGAUCUAACAAAAAAGACAAAUCUGCCACAAAGCUUGAGAGCAUCUUCGGAUGCAGAGGCGGCAGCCUUCGGUGGCGCGAUAGCGCCAACGUUCUCAACUAUGACACGCAAAACGCGUGCUCCGUUGAAUGGAGUUUAUCAUG

Variants of: B1
Test: polymerase ribozyme fitness, log enrichment relative to wild type (log ratio); higher = more active; in vitro selection for triplet polymerase activity
In short: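 Both subunits of a heterodimeric triplet polymerase ribozyme were given their own mutant library, built by PCR and transcribed. Each library was annealed with a biotinylated primer, the partner subunit and triplets, incubated frozen at −7 °C, and its extended constructs gel-excised, captured on streptavidin beads and amplified by RT-PCR, all in one round done in triplicate. Fitness is the logarithm of genotype enrichment relative to wild-type enrichment, with replicates averaged by inverse-variance weighting. That logarithm is base 2, and Illumina-sequenced genotypes needed ≥10 input reads and ≥1 read per output.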

Variant | polymerase ribozyme fitness (log ratio)
GGAUCUUCUCGAUCUAACAAAAAAGACAAAUCUGCCACAAAGCUUGAGAGCAUCUUCGGAUGCAGAGGCAGCAGCCUUCGGUGGCGCGAUAGUGCCAACGUUCUCAACUAUGACACGCAAAACGCGUGCUCCGUUGAAUGCAGUUUAUCAUG [G70A C93U G141C] | ≤ -4.2
GGAUCUUCUCGAUCUAACAAAAAAGACAAAUCUGCCACAAAGCUUGAGAGCAUCUUCGGAUGCAGAGGCCGCAGCCUUCGGUGGCGCGAUAGCGCCAACGUUCUCAACUAUGACAUGCAAAACGCGCGCUCCGUUUAAUGGAGUUUAUCAUG [G70C C116U U127C G136U] | ≤ -4.2
GGAUCUUCUCGAUCUAACAAAAAAGACAAAUCUGCCACAAAGCUUGAGAGCAUCUUCGGAUGCAGAGGCUGCAGCCUUCGGUGGCGCGAUAGCGCCAACGUUCUCAACUAUGACACGCAAACCGCGUGCUCCGUUGAAUGGAGGUUAUCAUG [G70U A122C U144G] | -2.06
GGAUCUUCUCGAUCUAACAAAAAAGACAAAUCUGCCACAAAGCUUGAGAGCAUCUUCGGAUGCAGAGGCAGCAACCUUCGGUGGCGCGAUAGCGCCAACGGUCCCAACUAUGACACGCAAAACGCGUGCUCCGUUGAAUGGAGUUUUUCAUG [G70A G74A U101G U104C A147U] | ≤ -4.2
GGAUCUUCUCGAUCUAACAAAAAAGACAAAUCUGCCACAAAGCUUGAGAGCAUCUUCGGAUGCAGAGGCUGCAGCCUUCUGUGGCGCGAUAGCGCCAACGUUCUCAACUAUGACACGCGAAACGCGUGCUCCGUUGAAUGGAGUUUAUCAUG [G70U G80U A119G] | ≤ -4.2
GGAUCUUCUCGAUCUAACAAAAAAGACAAAUCUGCCACAAAGCUUGAGAGCAUCUUCGGAUGCAGAGGCAGCAGCCUUCGGUGGCGCGAUAGCGUCAACGUUCUCAACUAUGACACGCAAAACGCGUGCUCCGUUGAAUGGAGCUUAUCGUG [G70A C95U U144C A150G] | ≤ -4.2
GGAUCUUCUCGAUCUAACAAAAAAGACAAAUCUGCCACAAAGCUUGAGAGCAUCUUCGGAUGCAGAGGCAGCAGCCGUCGGUGGCGCGAUAGCGCCAACCUUCUCAACGAUGACACGCAAAACGCGUGCUCCGUUGAAUGGAGUUUAUCAUG [G70A U77G G100C U109G] | ≤ -4.2
GGAUCUUCUCGAUCUAACAAAAAAGACAAAUCUGCCACAAAGCUUGAGAGCAUCUUCGGAUGCAGAGGCAGCUGCCUUCGGUGGCGCGAUAGCGCCAACGUUCUCAACUAUGACACGCAAAACGCGUGCUCCAUGGAAUGGAGUUUAUCAUG [G70A A73U G133A U135G] | ≤ -4.2
GGAUCUUCUCGAUCUAACAAAAAAGACAAAUCUGCCACAAAGCUUGAGAGCAUCUUCGGAUGCAGAGGCAGCAGCCUUCGGUGGCGCGAUAGCGCCAACGUUGUCAACUAUGACACGCAAAUCGCGUGCUCCGUUGAAUGGAGUUUAUCAUG [G70A C103G A122U] | ≤ -4.2
GGAUCUUCUCGAUCUAACAAAAAAGACAAAUCUGCCACAAAGCUUGAGAGCAUCUUCGGAUGCAGAGGCGACAGCCUUCGGUGGCGGGAUAGAGGCAACGUUCUCAACUAUGACACGCAAAACGCGUGCUCCGUUGAAUGGAGUUUAUCAUG [G71A C87G C93A C95G] | ≤ -4.2
GGAUCUUCUCGAUCUAACAAAAAAGACAAAUCUGCCACAAAGCUUGAGAGCAUCUUCGGAUGCAGAGGCAGCAGCCUUCGGUGGCGCGAUAGCGCCAACGUUCUCAACUAUGACACGCAAAACGCGUGCUCCGUUGAAAGAACUUUAUCAUG [G70A U139A G141A G143C] | ≤ -4.2
GGAUCUUCUCGAUCUAACAAAAAAGACAAAUCUGCCACAAAGCUUGAGAGCAUCUUCGGAUGCAGAGGCUGCAGCCAGCGGUGGCGCGAUAUCGCCAACGUUCUCAACUAUGACACGCAAAACUCGUGCUCCGUUGAAUGGAGUUUAUCAUG [G70U U77A U78G G92U G124U] | ≤ -4.2
GGAUCUUCUCGAUCUAACAAAAAAGACAAAUCUGCCACAAAGCUUGAGAGCAUCUUCGGAUGCAGAGGCAGCAGCCUUCGGUGGCGCGAUAGCGCCAACGUUCACAACUUUGACACGCAAAACGCGUGCUCCGUUGAAUGGAGUUUAUCAUG [G70A U104A A110U] | ≤ -4.2
GGAUCUUCUCGAUCUAACAAAAAAGACAAAUCUGCCACAAAGCUUGAGAGCAUCUUCGGAUGCAGAGGCAGCAGCCUUCGGUGGCGCCAUAGCGCCAACGUUCUCAACUAUGACACGCAAAACGCGUGCUCCGUUGAAUGGAGCUUAUCAUG [G70A G88C U144C] | ≤ -4.2
GGAUCUUCUCGAUCUAACAAAAAAGACAAAUCUGCCACAAAGCUUGAGAGCAUCUUCGGAUGCAGAGGCCGCAGCCUUCGGUGGCGCGAUAGCCCCAACGUUCUCAGCUAUGACACGCAAAACGGGUGCUCCGUUGAAUGGAGUUUAUCAUG [G70C G94C A107G C125G] | ≤ -4.2
GGAUCUUCUCGAUCUAACAAAAAAGACAAAUCUGCCACAAAGCUUGAGAGCAUCUUCGGAUGCAGAGGCAGCAGCCUUCGGUGGCGCGAUAGCGCUAACGUUCUCAACUAUGACACGCAAAACGCGUGCUCCGUUGAAUGGAGUUUAUCAUG [G70A C96U] | -2.89
GGAUCUUCUCGAUCUAACAAAAAAGACAAAUCUGCCACAAAGCUUGAGAGCAUCUUCGGAUGCAGAGGCAGCGGCCUUCGGUGGCUCGACAGCGCCAACGUUCUCAACUAUGACACGCCUAACGCGUGCUCCGUUGAAUGGAGUUUAUCAUG [G70A A73G G86U U90C A119C A120U] | ≤ -4.2
GGAUCUUCUCGAUCUAACAAAAAAGACAAAUCUGCCACAAAGCUUGAGAGCAUCUUCGGAUGCAGAGGCGCCAGCCUUCGGUGGCGCGAUUGUGCCAACGUUCGCAACUAUGACACGCAAAACGCGUGCUCCGUUGAAUGGAGUUUAUCAUG [G71C A91U C93U U104G] | ≤ -4.2
GGAUCUUCUCGAUCUAACAAAAAAGACAAAUCUGCCACAAAGCUUGAGAGCAUCUUCGGAUGCAGAGGCAGCUGCCUUCGGUGGCGGGAUAGCGCGAACGUUCUCAACUAUGACACGCAAAACGCGUGCUCCGUUGAAUGGAGUUUAUCAUG [G70A A73U C87G C96G] | ≤ -4.2

Variant | polymerase ribozyme fitness (log ratio)
GGAUCUUCUCGAUCUAACAAAAAAGACAAAUCUGCCACAAAGCUUGAGAGCAUCUUCGGAUGCAGAGGCAGCAGCCUUCGGUGGCGCGGUAUCGCCAACGUUCUCAGCUAUGACACGCAAAACGCGUGCUCCGUUGAAUGGAGUUUAUCAUG [G70A A89G G92U A107G] | ≤ -4.2
GGAUCUUCUCGAUCUAACAAAAAAGACAAAUCUGCCACAAAGCUUGAGAGCAUCUUCGGAUGCAGAGGCCGCAGCCUUCGGUGGCGCGAUAGCGCCAACGUUCUCAACUAUGACACGGAAAACGCGUGCUCCGUUGAAUGGAGUUUAUCAUG [G70C C118G] | ≤ -4.2
GGAUCUUCUCGAUCUAACAAAAAAGACAAAUCUGCCACAAAGCUUGAGAGCAUCUUCGGAUGCAGAGGCCGCAGCCUUCGGGGGCGCGAUAGCGCCAACGUUCUCAACUAUGACACGCAAAACGCAUGCUCCGUUGAAGGGAGUUUAUCAUG [G70C U82G G126A U139G] | ≤ -4.2
GGAUCUUCUCGAUCUAACAAAAAAGACAAAUCUGCCACAAAGCUUGAGAGCAUCUUCGGAUGCAGAGGCGACAGCCUUCGGUGGUACGAUAGUGCCAACGUUCUCAACUAUGAUACGCAAAACGCGUGCUCCGUUGAAUGGAGUUUAUCGUG [G71A C85U G86A C93U C114U A150G] | ≤ -4.2
GGAUCUUCUCGAUCUAACAAAAAAGACAAAUCUGCCACAAAGCUUGAGAGCAUCUUCGGAUGCAGAGGCUGCGGCCUUGGGUGGCGCGAUUGCGCCAACAUUCUCAACUAUGACACGCAAAACGCGUGCUCCGUUGAAUGGAGUUUAUCAUG [G70U A73G C79G A91U G100A] | ≤ -4.2
GGAUCUUCUCGAUCUAACAAAAAAGACAAAUCUGCCACAAAGCUUGAGAGCAUCUUCGGAUGCAGAGGCGACAGCCUUCGGUGGCGCGAUUGCGGCAACGUUCUCAACUAUGACACGCUAGACGCGUGAUCCGUUGAAUGGAGUUUGUCAUG [G71A A91U C95G A119U A121G C129A A147G] | ≤ -4.2
GGAUCUUCUCGAUCUAACAAAAAAGACAAAUCUGCCACAAAGCUUGAGAGCAUCUUCGGAUGCAGAGGCGACAGCCUUCGGUGGCGCGUUAGAGCCAACGUCCUCAACUAUGACACGCAAAACGCGUGCUCCUUUGAAUGGAGUUUACCAUG [G71A A89U C93A U102C G133U U148C] | ≤ -4.2
GGAUCUUCUCGAUCUAACAAAAAAGACAAAUCUGCCACAAAGCUUGAGAGCAUCUUCGGAUGCAGAGGCAGCAGCCUUCGGUGACGCAAUAGCGCCAACGUUCUCAACUAUGACACGCAAAACGCGUGCUCCGUUGAAUGGAGUAUAUCAUG [G70A G84A G88A U145A] | ≤ -4.2
GGAUCUUCUCGAUCUAACAAAAAAGACAAAUCUGCCACAAAGCUUGAGAGCAUCUUCGGAUGCAGAGGCAGCAGCCUUCGGUGGAGCGAUAGAGCCAACGUUCUCAACUAUGACACGCAAAACGCCUUAUCCGUUGAAUGGAGUUUAUCAUG [G70A C85A C93A G126C G128U C129A] | ≤ -4.2
GGAUCUUCUCGAUCUAACAAAAAAGACAAAUCUGCCACAAAGCUUGAGAGCAUCUUCGGAUGCAGAGGCAGCAGCCUUCGGUUGCGCGAUAGCGCCAACGUUCUAAACUAUGACACGCAAAACGCGUGCUCCGUUGAAUGGAGUUUCACAUG [G70A G83U C105A A147C U148A] | ≤ -4.2
GGAUCUUCUCGAUCUAACAAAAAAGACAAAUCUGCCACAAAGCUUGAGAGCAUCUUCGGAUGCAGAGGCCGCAGCAUUUGGUGGCGAGAUAGCGCCAACGUUCUCAACUAUGACACGCAAAACGCGUGCUCCGUUGAAUGGAGUUUAUCAUG [G70C C76A C79U C87A] | ≤ -4.2
GGAUCUUCUCGAUCUAACAAAAAAGACAAAUCUGCCACAAAGCUUGAGAGCAUCUUCGGAUGCAGAGGCAGCAGCCUUCGGUGACGGGAUAGCGCCAACGUUCUCAACUAUGCCACGCAGAACGCGUGCUCCGUUGAAUGGAGUUUAUCAUG [G70A G84A C87G A113C A120G] | ≤ -4.2
GGAUCUUCUCGAUCUAACAAAAAAGACAAAUCUGCCACAAAGCUUGAGAGCAUCUUCGGAUGCAGAGGCGACAGCCUUCGGUGGCGCGAUAGCGCCAUCGGUCUCAACUAUGACACGCAAAACGCGUGCUCCGUUGAAUGAAGUUUAUCAUG [G71A A98U U101G G141A] | ≤ -4.2
GGAUCUUCUCGAUCUAACAAAAAAGACAAAUCUGCCACAAAGCUUGAGAGCAUCUUCGGAUGCAGAGGCCGCAGCCUUCGGUGGCGCGAUAGCGCCAACGUUCUCAACUAUGACACGCAAAACGCGUGCUCCGUUGAAUGGCGUUUAUCAUG [G70C A142C] | -3.72
GGAUCUUCUCGAUCUAACAAAAAAGACAAAUCUGCCACAAAGCUUGAGAGCAUCUUCGGAUGCAGAGGCAACAGCCUUCGGUGGCGUGAUAGCGCCAACGUUCUCAACUAUGACACGCAAAAUGCGUGCUCCGUUGACUGGAGUUUAUCAUG [G70A G71A C87U C123U A138C] | ≤ -4.2
GGAUCUUCUCGAUCUAACAAAAAAGACAAAUCUGCCACAAAGCUUGAGAGCAUCUUCGGAUGCAGAGGCUGCAGCAUUCGGUGGCGCGAUAGCGCCAACGUUCUCAACUAUGACACGCAAAACGCGUGCUCCGUUGAAUGGAGUUUAUCAUG [G70U C76A] | -4.19
GGAUCUUCUCGAUCUAACAAAAAAGACAAAUCUGCCACAAAGCUUGAGAGCAUCUUCGGAUGCAGAGGCAGCAGCCUUCGGUCGCGCGAUAGCAUCAACGUUCUCAUCUAUGACACGUAAAACGCGUGCUCCGUUGAAUGGAGUUUAUCAUG [G70A G83C G94A C95U A107U C118U] | ≤ -4.2
GGAUCUUCUCGAUCUAACAAAAAAGACAAAUCUGCCACAAAGCUUGAGAGCAUCUUCGGAUGCAGAGGCGCCAGCCUUCGGUGGCGCGAUCGCGACAACGUUAUCAACUAGGACACGCAAACCGCGUGCUCCCUUGAAUUGAGUUUAUCAUG [G71C A91C C95A C103A U111G A122C G133C G140U] | ≤ -4.2
GGAUCUUCUCGAUCUAACAAAAAAGACAAAUCUGCCACAAAGCUUGAGAGCAUCUUCGGAUGCAGAGGCCGCAGCCUUUGGUGGCGCGAUAGCCCCAACGUUCUCAACUAUGACACGCAAAACGCGUGCUCCGUUGAAUGGAGUUUAUCAUG [G70C C79U G94C] | ≤ -4.2
